Whole data set: some 110,000 compounds, median “z-score” near -0.1, cut for the highest 2% near 2. The list shows a part of the results. Calls of active or inactive are those of the source.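 Rule for the calls: active = z-score in the third read window above 3 or below -3; inactive = the rest.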
Target: Metabotropic glutamate receptor 8 (Rattus norvegicus) (UniProt P70579)
Test: rat mGluR8 modulators via GIRK flux, primary screen, cell-based, thallium flux, HTS (AID 488969)
Conditions: HEK293 rat mGluR8, GIRK (G protein-gated inwardly rectifying potassium channel) thallium flux, FluoZin2; at 10 µM; stronger effect = higher value; submaximal glutamate (EC20) added with thallium

Sequence of UniProt P70579 (P70579 whole entry, looked up): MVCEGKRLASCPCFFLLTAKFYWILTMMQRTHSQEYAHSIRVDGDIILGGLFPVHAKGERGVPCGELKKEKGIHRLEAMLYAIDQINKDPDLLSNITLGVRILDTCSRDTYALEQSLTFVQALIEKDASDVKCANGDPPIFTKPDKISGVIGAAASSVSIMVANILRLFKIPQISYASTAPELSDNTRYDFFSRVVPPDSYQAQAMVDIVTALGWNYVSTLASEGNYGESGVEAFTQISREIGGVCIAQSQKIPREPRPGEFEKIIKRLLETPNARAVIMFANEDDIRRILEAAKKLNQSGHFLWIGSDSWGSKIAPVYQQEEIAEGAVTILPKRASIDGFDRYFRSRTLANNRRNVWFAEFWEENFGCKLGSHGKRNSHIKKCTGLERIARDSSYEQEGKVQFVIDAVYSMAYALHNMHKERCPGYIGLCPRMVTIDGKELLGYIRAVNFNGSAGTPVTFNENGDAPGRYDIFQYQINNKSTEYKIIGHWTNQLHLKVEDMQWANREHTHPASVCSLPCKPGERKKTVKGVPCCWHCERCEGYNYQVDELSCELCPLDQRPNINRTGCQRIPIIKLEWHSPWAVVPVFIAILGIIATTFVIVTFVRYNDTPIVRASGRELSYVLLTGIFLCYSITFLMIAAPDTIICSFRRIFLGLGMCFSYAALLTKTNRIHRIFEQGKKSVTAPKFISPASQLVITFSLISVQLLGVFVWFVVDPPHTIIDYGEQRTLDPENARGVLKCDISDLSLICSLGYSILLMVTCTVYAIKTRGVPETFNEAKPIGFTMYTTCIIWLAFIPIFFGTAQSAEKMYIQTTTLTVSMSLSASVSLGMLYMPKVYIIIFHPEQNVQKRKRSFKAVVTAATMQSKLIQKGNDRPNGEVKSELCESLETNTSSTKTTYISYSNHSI

Compound | z-score
Cc1cc(Nc2ccccc2)n(CCO)n1 | -0.342
Clc1ccc(-c2nnc3sc(-c4ccccn4)nn23)cc1 | -0.712
COc1cc(OC)cc(C(=O)Nc2ccccc2C(=O)N2CCCC2)c1 | -0.915
CCCCN(C)Cc1c(C)[nH]c2ccc(C)cc2c1=O | 0.122
Nc1nc(Cl)cc(Sc2ccc3ccccc3c2)n1 | -0.0266
Cc1ccc(NC(=S)NC(=O)/C=C/c2ccc(Cl)cc2)cc1 | -0.012
O=C(NCCN1CCN(c2ccccc2F)CC1)C1c2ccccc2C(=O)N2CCc3ccccc3C12 (configuration not stated) | -0.308
COc1ccc(C(=O)Nc2ccc(C(F)(F)F)n(C)c2=O)cc1 | 0.0843
COc1ccccc1-n1c(=O)c2c3c(sc2n2c(SC)nnc12)CCC3 | -0.196
O=C(NC1CCCCC1)c1ccc(S(=O)(=O)c2ccccc2Cl)c([N+](=O)[O-])c1 | -0.192
Cc1cc(C)n2c(SCc3ccc(Cl)cc3Cl)nnc2n1 | -0.367
Cc1nc([N+](=O)[O-])cn1-c1ccc(N)cc1 | -0.174
C=CCOc1c(Cl)cc(/C=N/O)cc1OC | -0.49
c1cn(C23CC4CC(CC(C4)C2)C3)cn1 | active: 4.17
Cc1cccc(NC(=O)C(C)N2C(=O)C3C4CC(C(Br)C4Br)C3C2=O)c1 (configuration not stated) | 0.0214
CCOc1cc(C=C(C(=O)OC)C(=O)OC)ccc1OCc1ccc([N+](=O)[O-])cc1 | -0.0266
O=C(O)CCSc1nc2ccccc2c(=O)[nH]1 | 0.336
COc1ccc(CN2CC(C(=O)NCCCOC(C)C)CC2=O)cc1 (configuration not stated) | 0.143
Cc1nc2ncnn2c(N2CCN(C(=O)Cc3cccs3)CC2)c1C | -0.403

Compound | z-score
Cc1ccc(C(=O)NCCSc2ccc(Cl)cc2)cc1[N+](=O)[O-] | -1.25
Cc1nc(N2CCC(C)CC2)c2c(C)c(C(=O)O)sc2n1 | -0.0467
COC(=O)CSC1=C(C#N)C(c2cccc(OC)c2)CC(=O)N1 (configuration not stated) | 0.085
COc1ccccc1C(=O)n1nc(-c2ccccc2)nc1N | -0.265
CC(C)(C)OC(=O)N/N=C\C=C\c1ccc2c(c1)OCO2 | 0.189
O=C(O)CCC(=O)Nc1ccc(F)cc1 | 0.743
CC(=O)NC1(c2cccc(F)c2)CCN(C(=O)Nc2ccc(C#N)cc2)CC1 | -0.389
COCCn1nnnc1C(c1cc2cc(C)cc(C)c2[nH]c1=O)N1CCN(c2ccccc2F)CC1 (configuration not stated) | 0.0225
O=C(N1CCOCC1)N1CCN(C(=O)N(c2ccccc2)c2ccccc2)CC1 | -0.217
O=C(Cc1cccs1)Nc1ccc(-c2nnn(CC(=O)N3CCOCC3)n2)cc1 | -0.736
Cc1cc(SCCC(=O)O)nc2c(C)cccc12 | 0.621
Cc1ccnc(NC(=O)COC(=O)C2COc3ccccc3O2)n1 (configuration not stated) | -1.63
COc1ccc(N2C(=O)C3CCCN3C2c2ccccc2F)cc1 (configuration not stated) | -0.777
CC(C)(C)n1nc2c(c1NC(=O)c1cccs1)CS(=O)C2 (configuration not stated) | 0.235
COc1ccc(OC)c(NC(=O)CC(Cc2ccccc2OC)C(=O)O)c1 (configuration not stated) | -0.255
Cc1ccnc(NC(=S)NC(=O)c2cncc(Br)c2)c1 | 1.25
CCOc1ccc(C2=CS/C(=C(\C#N)c3nnc4n3CCCCC4)N2CC)cc1 | -2.45
CCn1ccc(=N)cc1 | -0.08
CN(C)S(=O)(=O)c1ccc(C(=O)Nc2cccc(C(=O)O)c2)cc1 | -0.0406

Compound | z-score
C[n+]1cc(-c2ccccc2)n2c1CCCCC2 | 0.679
CCOC(=O)c1cnn(-c2nc3c(C)cccc3s2)c1C | -0.112
Nc1cc(OC(=O)c2cccs2)nn1S(=O)(=O)c1ccccc1 | -0.719
COc1ccc(CCN(C)C(=O)C2CCCN(Cc3ccc(OC)c(OC)c3)C2)cc1OC (configuration not stated) | -0.269
CCOc1ccc(NC(=O)N2CCC(n3c(=O)[nH]c4ccccc43)CC2)cc1 | -0.177
COc1ccc(S(=O)(=O)CCC(=O)N(C)c2ccc(OC)cc2OC)cc1 | 0.332
CC(=O)c1cccc(NC(=O)C2CC(=O)N(Cc3ccccc3)C2)c1 (configuration not stated) | -0.606
Cn1ccnc1C(O)c1ccco1 (configuration not stated) | -0.195
CCOC(=O)c1cccc(C(=O)Oc2ccccc2)n1 | -1.04
COC(=O)CNC(=O)CSc1nc(N)cc(=O)[nH]1 | -0.273
CCCCC1(C)Nc2ccccc2-c2nc3ccccc3n21 (configuration not stated) | -1.21
CCOc1ccc2[nH]c(=O)c(C(c3nnnn3Cc3ccco3)N3CCCC(C)C3)cc2c1 (configuration not stated) | 0.699
CCc1ccc(OCCOCC(O)CNC(C)(C)C)cc1 (configuration not stated) | -0.177
CCn1c(SCC(=O)O)nnc1C1CCCCC1 | -0.251
C=CCNc1nc2c(c(=O)n(C)c(=O)n2C)n1CC | -0.405
CCOc1cc(S(=O)(=O)N2CCCCC2)ccc1F | 0.329
CCCCOc1ccc(C(=O)NCC(=O)OCC(=O)N2CCN(S(=O)(=O)c3ccc(C)cc3C)CC2)cc1 | -0.156
CCOC(=O)c1sc2cccc(Cl)c2c1N | 0.0242
O=C(CN(Cc1cccs1)C(=O)CCC(=O)Nc1nccs1)NCc1ccccc1 | -0.316

Source: PubChem BioAssay AID488969 (Vanderbilt High Throughput Screening Facility, 2010)
